Reference: article PMC4336329 (PLoS ONE, 2015)
About 14,000 (4.5%) of roughly 310,000 compounds showed an effect of 50% or more. Effects have a minus sign here. The list shows a part of the results.

target: human ether-à-go-go-related gene (hERG) potassium channel (human, UniProt Q12809); assay: primary screen, population patch clamp on CHO cells stably expressing hERG
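Further: peak tail current of the secondary pulse compared with the same well before compound.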

Sequence of human ether-à-go-go-related gene (hERG) potassium channel (Q12809 whole entry, looked up): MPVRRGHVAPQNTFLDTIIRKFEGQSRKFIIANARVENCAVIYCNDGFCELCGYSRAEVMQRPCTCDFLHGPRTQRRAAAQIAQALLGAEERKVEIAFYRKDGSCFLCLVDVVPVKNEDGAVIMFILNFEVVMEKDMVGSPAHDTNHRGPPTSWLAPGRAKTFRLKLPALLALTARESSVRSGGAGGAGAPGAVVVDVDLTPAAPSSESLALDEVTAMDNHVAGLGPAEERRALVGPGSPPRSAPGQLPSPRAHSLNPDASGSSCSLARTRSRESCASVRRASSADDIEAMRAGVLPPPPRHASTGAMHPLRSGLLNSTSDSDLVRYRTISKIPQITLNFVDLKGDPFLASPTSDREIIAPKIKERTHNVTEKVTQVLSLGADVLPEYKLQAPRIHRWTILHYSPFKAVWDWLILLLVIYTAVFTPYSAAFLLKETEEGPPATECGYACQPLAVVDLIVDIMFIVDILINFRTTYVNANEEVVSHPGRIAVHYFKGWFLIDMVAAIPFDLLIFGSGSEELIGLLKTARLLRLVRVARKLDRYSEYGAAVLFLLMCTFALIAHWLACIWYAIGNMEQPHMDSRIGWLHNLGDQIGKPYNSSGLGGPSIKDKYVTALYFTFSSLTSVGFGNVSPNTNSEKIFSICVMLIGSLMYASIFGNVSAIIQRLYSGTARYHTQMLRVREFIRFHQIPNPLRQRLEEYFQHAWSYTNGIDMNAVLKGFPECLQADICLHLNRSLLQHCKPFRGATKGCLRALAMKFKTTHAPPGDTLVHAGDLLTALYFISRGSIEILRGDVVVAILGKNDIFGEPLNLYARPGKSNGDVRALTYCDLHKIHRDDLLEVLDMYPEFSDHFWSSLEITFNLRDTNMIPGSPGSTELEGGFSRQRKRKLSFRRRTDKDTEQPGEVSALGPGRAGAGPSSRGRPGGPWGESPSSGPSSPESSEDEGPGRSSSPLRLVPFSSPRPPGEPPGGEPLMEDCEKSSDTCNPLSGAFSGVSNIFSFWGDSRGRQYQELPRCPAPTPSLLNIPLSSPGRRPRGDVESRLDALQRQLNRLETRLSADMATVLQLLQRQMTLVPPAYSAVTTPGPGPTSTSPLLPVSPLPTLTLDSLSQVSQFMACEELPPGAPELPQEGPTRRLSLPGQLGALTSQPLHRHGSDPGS

Row | SMILES | hERG current change (%, negative = inhibition) at 10uM [%]
1 | CCOc1ccc(NC(=O)c2ccc(N3CC4CC(C3)c3cccc(=O)n3C4)c(NC(=O)c3ccncc3)c2)cc1 (centres unmarked) | 1.19
2 | CC(=O)Nc1ccc(S(=O)(=O)NC(C)(C#N)C2CC2)cc1 (centres unmarked) | 11
3 | COc1cccc(CNC(=O)C(=O)NCC2CCCN2S(=O)(=O)c2cc(C)ccc2C)c1 (centres unmarked) | -34.4
4 | O=C(CN1CCOc2ccccc21)N1CCCC1 | 12.5
5 | CC1CCN(C(=O)CSc2ccc(-c3ccccc3)nn2)CC1 | -11.8
6 | Cc1ccc(NC(=O)CN(C)CC(=O)Nc2ccc(N3CCOCC3)cc2)cc1F.O=C(O)C(=O)O | -15.3
7 | COc1ccc(C(CNC(=O)c2ccc3c(c2)CCC3)N(C)C)cc1 (centres unmarked) | -5.08
8 | CCCCNC(=O)CN1CCN(Cc2ccc3cc(OC)ccc3c2)CC1.O=C(O)C(=O)O | -69
9 | O=C(NCc1cccs1)c1cnc2sccn2c1=O | -14
10 | Cc1cc(C(=O)NCc2ccc(S(N)(=O)=O)cc2)cs1 | -14
11 | Cc1ccc(NC(=O)CSc2nnc(Cn3cnc4ccccc43)o2)c(C)c1 | 1.12
12 | C=CCc1cccc(/C=N/NC(=O)C(C)Nc2ccc(C)cc2)c1O (centres unmarked) | 8.9
13 | COc1ccc(Cl)cc1NC(=O)COC(=O)CCCC1=NS(=O)(=O)c2ccccc2N1 | 21.4
14 | CCOC(=O)c1c(NC(=O)COC(=O)C2CC2C)sc(C)c1C (centres unmarked) | 19.6
15 | O=C(COC(=O)/C=C/c1cccc(Cl)c1)Nc1ccccc1-c1ccccc1 | 7.61
16 | Cc1ccc2[nH]c(=O)c(CN(Cc3ccccc3)C(=S)NCCCN(C)C)cc2c1 | -24.9
17 | CC(C)(C)OC(=O)NCCCC1=CC2=CC(=O)C(C)(OC(=O)c3ccco3)C(=O)C2=CO1 (centres unmarked) | 5.99
18 | Cc1ccc(C)c(COC(=O)CCN=C2NS(=O)(=O)c3ccccc32)c1 | -10.4
19 | Cc1ccc(-c2nc3cnccn3c2Nc2c(C)cccc2C)o1 | -20.4

Row | SMILES | hERG current change (%, negative = inhibition) at 10uM [%]
20 | CCN(CC(=O)NCc1ccc(F)cc1)C(=O)CN1CCN(c2ccc(OC)cc2)CC1.O=C(O)C(=O)O | -61.9
21 | Cc1cc(C)n(/C(=C/N(C)C)C(=O)c2ccccc2)n1 | 15.6
22 | O=C1/C(=C\c2cccnc2)CCc2ccccc21 | -7.61
23 | O=C(NCCCNCCCNC(=O)c1ccccn1)c1ccccn1 | -12.7
24 | Cc1cc(/C=C(\C#N)C(N)=O)c(C)n1-c1ccc(N2CCOCC2)c([N+](=O)[O-])c1 | -5.05
25 | COc1ccc(CCn2nnnc2C(c2ccccc2)N2CCN(C)CC2)cc1OC.Cl (centres unmarked) | 7.37
26 | COCCSc1nnc(NC(=O)c2ccco2)s1 | 26.8
27 | Cc1ccc(S(=O)(=O)N(C)c2ccc(OCC(=O)OCC(=O)N(CC#N)c3ccccc3)cc2)cc1 | -8.59
28 | CCCCN1CCC(COC(=O)c2cc(Cl)c(N)c3c2OCCO3)CC1.Cl | -59.4
29 | CCn1c(SCC(=O)c2ccccc2)nc2c(c1=O)SC(C)C2 (centres unmarked) | 1.28
30 | COc1ccc(C2Nc3ccccc3NC3=C2C(=O)CC(C)(C)C3)cc1O (centres unmarked) | 19
31 | CCOC(=O)c1c(NC(=O)CSc2nc3ccccc3s2)sc(C)c1C | 10.6
32 | O=C(NC(=S)Nc1ccc(F)c(Cl)c1)C1CC1 | -15
33 | O=C(NC(c1ccccc1)c1ccccc1)c1ccc(Br)o1 | 1.04
34 | Cc1ccc(-c2noc(CSc3nnc(-c4cccs4)n3C)n2)cc1 | 7.56
35 | CCOc1ccccc1C1CC(c2ccc(F)cc2)Nc2nc(N)nn21 (centres unmarked) | -48.1
36 | O=c1cc(-c2ccccc2)c2ccc(O)c(CN3CCCCC3)c2o1 | -8.89
37 | Cc1cc(=O)c(C(=O)O)nn1-c1ccccc1[N+](=O)[O-] | 6.49
38 | Cc1ccc(Cl)cc1NC(=O)COC(=O)CC1CC2CCC1C2 (centres unmarked) | -0.084

Row | SMILES | hERG current change (%, negative = inhibition) at 10uM [%]
39 | CCN(CC)CCNc1ccnc2cc(Cl)ccc12 | -31.5
40 | Cc1ccc(S(=O)(=O)Oc2ccc(/C=N/NC(=O)c3cccnc3)cc2)cc1 | 9.82
41 | CN(CCc1ccccn1)C(=S)Nc1ccc(Cl)c(Cl)c1 | -3.59
42 | COc1cc(C(=O)NCCNC(=O)c2ccc(C)nc2)cc(OC)c1OC | 11.8
43 | COc1ccc(/C=C/C(=O)N2CCN(C)CC2)cc1OC | 6.7
44 | CC(/C=C1\NC(=S)NC1=O)=C\c1ccccc1 | 19.4
45 | Cc1ccc(CNC(=O)c2oc3ccc(S(=O)(=O)N4CCC5(CC4)OCCO5)cc3c2C)cc1 | -3.35
46 | Cc1cc(C(=O)Nc2cccnc2)on1 | -3.6
47 | COc1ccc(N2C(=O)c3cccc4c(N(C)CCO)ccc(c34)C2=O)cc1 | 16.1
48 | CC1CN(C(=O)Nc2ccc(F)cc2)C2(CCCCCC2)O1 (centres unmarked) | 4.2
49 | Cc1ccc(CSCC(=O)Nc2ccc(F)cc2)cc1 | -11.2
50 | N#Cc1ccc(NC(=S)Nc2ccccc2)cc1 | 1.45
51 | CC(NC(=O)CCn1ccc2cc(S(=O)(=O)N3CCCC3)ccc21)c1ccccc1 (centres unmarked) | 0.519
52 | CCSc1nc2c(c(=O)[nH]c(=O)n2C)n1C/C=C(/C)Cl | -17.2
53 | CCOC(=O)CCCNC(=O)c1cncc(O)c1.Cl | -7.47
54 | CCOC(=O)/C=C/C(=O)Nc1ccc(S(=O)(=O)N2CCc3ccccc32)cc1 | 5.87
55 | COC(=O)C1=CN(c2cccc(Cl)c2)C=C(C(=O)OC)C1c1cccc(OC)c1 | 18.1
56 | COc1ccc(NC(=O)CSc2nc3n[nH]c(C)c3c(=N)n2-c2ccc(Cl)c(C)c2)cc1OC | 16
